Experimental data published in PubChem BioAssay AID588501 (NMMLSC, 2011).
Out of some 360,000 compounds screened, about 420 (0.12%) were called active. Inconclusive means that the source gave no clear call. Such entries were picked first, then a sample of the others. Rule as the data show it: active = inhibition above about 30%; inconclusive = no clear call, values can overlap the other calls; inactive = below that.

What follows are compounds tested against Lethal factor (Bacillus anthracis) (UniProt P15917) (assay: anthrax lethal factor cleavage blockers – biochemical, multiplex microsphere, MLPCN library, primary screen (AID 588501; also: plate controls were buffer without enzyme for full effect and enzyme alone for no effect)). Details: multiplex microsphere protease cleavage assay, LF; at 10 µM; hits give high values.
Sequence of UniProt P15917 (P15917 whole entry, looked up): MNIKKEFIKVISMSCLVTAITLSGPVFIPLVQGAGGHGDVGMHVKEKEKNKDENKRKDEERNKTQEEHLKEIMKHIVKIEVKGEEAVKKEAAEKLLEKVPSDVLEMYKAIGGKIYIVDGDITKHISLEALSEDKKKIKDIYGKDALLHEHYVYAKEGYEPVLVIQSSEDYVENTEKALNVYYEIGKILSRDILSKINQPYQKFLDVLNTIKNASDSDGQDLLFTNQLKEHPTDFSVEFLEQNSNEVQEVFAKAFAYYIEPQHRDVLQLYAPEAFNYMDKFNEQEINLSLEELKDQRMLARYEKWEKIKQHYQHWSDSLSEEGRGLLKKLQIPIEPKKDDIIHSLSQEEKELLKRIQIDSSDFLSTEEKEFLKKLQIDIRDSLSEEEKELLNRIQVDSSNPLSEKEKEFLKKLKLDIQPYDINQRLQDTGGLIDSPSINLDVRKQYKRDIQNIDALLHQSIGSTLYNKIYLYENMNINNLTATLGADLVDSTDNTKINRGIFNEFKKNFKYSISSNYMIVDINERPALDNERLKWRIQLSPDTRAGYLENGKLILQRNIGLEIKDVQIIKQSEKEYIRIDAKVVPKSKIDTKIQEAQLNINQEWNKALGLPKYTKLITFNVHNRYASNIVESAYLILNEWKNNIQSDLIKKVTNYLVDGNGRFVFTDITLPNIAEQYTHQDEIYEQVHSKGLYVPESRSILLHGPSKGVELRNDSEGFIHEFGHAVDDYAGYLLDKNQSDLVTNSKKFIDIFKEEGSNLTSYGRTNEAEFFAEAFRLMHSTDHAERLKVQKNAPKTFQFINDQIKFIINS

Row | SMILES | inhibition
1 | CCCS(=O)(=O)C/C(N)=N/OC(=O)c1ccccc1Cl | inconclusive: 11.9%
2 | CC[N+](C)(CC)CCC/C(=N/O)C(O)(c1ccccc1)c1ccccc1 | inconclusive: -15.2%
3 | CCN(CC)c1ccc(/C=C2\CCC(/C=C(/C#N)C(=O)Nc3ccccc3F)=C2N2CCOCC2)cc1 | inconclusive: -3%
4 | NS(=O)(=O)c1ccc(CCNC(=O)CCc2ccccc2)cc1 | inconclusive: -14.4%
5 | N#Cc1cc2ccccc2nc1N | inactive: 0.7%
6 | CCC(C)NC(=O)c1c(N)n(/N=C/c2cccnc2)c2nc3ccccc3nc12 (centres undefined) | inconclusive: -10.8%
7 | CCc1ccc(Nc2ncc3c(n2)CC(C)CC3=O)cc1 (centres undefined) | inactive: -2.8%
8 | Cc1cc(=O)n(-c2ccc3ccccc3n2)[nH]1 | inactive: 1%
9 | CN1C(=O)N(C)C(=O)C2(Cc3c(ccc4ccccc34)N(C)C2)C1=O | inactive: 2.4%
10 | COc1ccc(NC(=O)COc2cccc3c2OC(C)(C)C3)cc1OC | inconclusive: -13.3%
11 | COc1cccc(-c2cc(C(F)(F)F)n3nc(N)nc3n2)c1 | inactive: -0.8%
12 | O=S(=O)(c1ccccc1F)N1CCc2ccccc2C1 | active: 33.9%
13 | COc1ccccc1-c1nc(COc2ccc(Cl)cc2Cl)no1 | inactive: -20.3%
14 | O=C1c2cccc3cc([N+](=O)[O-])cc(c23)C(=O)N1CCN1CCCC1 | inactive: -2.6%
15 | COc1ccc(CN(C(=O)c2cccc(OC)c2)C2CCS(=O)(=O)C2)cc1 (centres undefined) | inconclusive: 1.2%
16 | CCCN1C(=O)c2ccc(C(=O)Nc3nccs3)cc2C1=O | inconclusive: -17.3%
17 | CC(=O)N1CCN(S(=O)(=O)c2ccc(S(=O)(=O)NCC(C)C)cc2)CC1 | inconclusive: -9.1%
18 | COc1ccc(C(=O)NCc2ccccc2CN2CCCC2)cc1S(=O)(=O)Nc1ccc(C)cc1 | inconclusive: -9.7%
19 | CC(C)Nc1nnc(SCC(=O)N2CCN(C(=O)c3ccco3)CC2)s1 | inconclusive: -1.8%
20 | CCN(CC(=O)Nc1ccc(S(=O)(=O)N2CCOCC2)cc1)Cc1ccccc1 | inconclusive: 0.7%

Row | SMILES | inhibition
21 | CCOC(=O)c1cn(-c2c(C)n(C)n(-c3ccccc3)c2=O)c2c(F)c(F)c(F)cc2c1=O | inconclusive: -18.1%
22 | Nc1nnc(SCC(=O)NCCNC(=O)CSc2nnc(N)s2)s1 | inconclusive: -1.1%
23 | CC1(C)SC(C)(C)N(C=O)C1C(=O)O (centres undefined) | inactive: 5.3%
24 | CCOc1ccc(NC(=O)CN(c2cccc(C(F)(F)F)c2)S(C)(=O)=O)cc1 | inconclusive: -5%
25 | CC(=NNC(=S)SCc1ccccc1)c1ccccn1 | active: 56.9%
26 | CN(CC(=O)Nc1cccc(F)c1)C(=O)c1cc(-c2ccco2)nc2ccccc12 | inconclusive: 0.3%
27 | S=C(NN=C(c1ccccc1)c1ccccn1)N(Cc1ccccn1)Cc1ccccn1 | active: 43%
28 | CCOC(=O)c1c(CC(C)C)csc1/N=C/C1=C(O)CCCC1=O | inconclusive: 4.3%
29 | CC(=NNC(=S)N1CC2CCC(CC2)C1)c1ccncn1 | active: 57.2%
30 | Cc1ccc(C(=O)N=c2sccn2C)o1 | inactive: -0.5%
31 | C(=C/c1ccnc2nc(SC/C=C/c3ccccc3)nn12)/c1ccccc1 | inconclusive: -13.2%
32 | CCc1nc2ccc(C(=O)NCCCN3CCCC3=O)cn2c1N(CC)CCOC | inactive: -1.2%
33 | CCC1(C)Cc2c(C#N)c(N)sc(=S)c2CO1 (centres undefined) | active: 41.4%
34 | FC(F)(F)c1cccc(CC2CN(Cc3ccccc3)Cc3ccccc3N2c2cc(Cl)cc(Cl)c2)c1 (centres undefined) | inactive: -1.2%
35 | Cc1ccccc1-n1nc2c(c1NC(=O)COc1ccc(Cl)cc1)CS(=O)C2 (centres undefined) | inactive: -2.8%
36 | COc1ccc(C(=O)Nc2nc(-c3ccc([N+](=O)[O-])cc3)c(-c3ccc(OC)cc3)s2)cc1 | active: 32.8%
37 | O=C1c2ccccc2C(=O)N1CCSc1ccccc1 | inconclusive: -8.5%
38 | O=C(Nc1ccncc1)c1ccc(N2CCCC2=O)cc1 | inconclusive: -58.3%
39 | O=C(Nc1cccc2[nH]c([C@H]3C[C@H](O)[C@@H](CO)O3)nc12)NC(c1ccccc1)c1ccccc1 | inactive: -10.4%
40 | Cc1ccccc1CN1C(=O)c2ccccc2C1c1nnnn1C(C)C (centres undefined) | inactive: -6.3%

Row | SMILES | inhibition
41 | COc1cccc(CC(=O)OCC(=O)NCC(=O)Nc2cccc(C)c2C)c1 | inconclusive: 0%
42 | COc1ccc([C@H]2CC(=O)C=C(c3ccc(C)cc3)C2)cc1OC | inactive: -6.2%
43 | CCOc1c2ccccc2nn1CCO | inactive: -8.9%
44 | CCOc1ccc(S(=O)(=O)NCCC(=O)NCC(c2ccc(OC)cc2)N2CCCCC2)cc1 (centres undefined) | inconclusive: 3.5%
45 | Cc1ccc(S(=O)(=O)N2CCC(C(=O)Nc3ccc(S(=O)(=O)N4CCCC4)cc3)CC2)cc1 | inconclusive: 3%
46 | CC(/C=N/n1cnnc1)=C\c1ccco1 | inconclusive: -10.5%
47 | Cc1ccc(C(=O)NCC(=O)Nc2ccc3c(c2)CCC3)cc1C | inconclusive: -1.9%
48 | CCOC(=O)c1c(NC(=S)Nc2ccccc2)sc2c1CCN(CC)C2 | active: 31%
49 | CCOc1ccccc1C(c1c(O)nc(SC)[nH]c1=O)c1c(O)nc(SC)[nH]c1=O | inconclusive: -2.1%
50 | COC(=O)c1ccccc1-c1c2ccc(=N)cc-2oc2cc(N)ccc12 | active: 61.4%
51 | CC(C)C(=O)Nc1cc(C(F)(F)F)ccc1-n1ccnc1 | inactive: -9.2%
52 | COc1ccc2oc(=O)c(C(C)=O)cc2c1 | inactive: -3.5%
53 | COc1ccc(C(=O)Nc2ccccc2C(=O)NCc2ccco2)cc1OC | inconclusive: -22.2%
54 | O=C(CCl)N(c1ccc(Cl)cc1)c1c[nH]c2ccccc12 | inconclusive: -12.6%
55 | N#C/C(=C/c1ccc(N2CCCCC2)o1)C(=O)Nc1ccc2ccccc2c1 | active: 38.6%
56 | O=C1CCCC(O)=C1N=Nc1c(Cl)cc(C(F)(F)F)cc1Cl | active: 83.3%
57 | O=C1CCc2cc(S(=O)(=O)NCCC(=O)N3CCN(c4cccc(Cl)c4)CC3)ccc2N1 | inconclusive: -2.4%
58 | O=C(Nc1ccccc1C(=O)NC1CCCCC1)c1ccco1 | inactive: 0.3%
59 | Cc1ccc(NC(=S)NC(=O)c2cncc(Br)c2)cc1Cl | inconclusive: -3.2%
